# In publication PMC10726135:
# The list shows a part of the results. At the low end of the ranking the order means little. The protein was read in a cell extract, so binding may be indirect.
# Molecular target: T1, HNF4alpha8 (COS-7 nuclear extract) (UniProt P41235-5)
# T1 sequence: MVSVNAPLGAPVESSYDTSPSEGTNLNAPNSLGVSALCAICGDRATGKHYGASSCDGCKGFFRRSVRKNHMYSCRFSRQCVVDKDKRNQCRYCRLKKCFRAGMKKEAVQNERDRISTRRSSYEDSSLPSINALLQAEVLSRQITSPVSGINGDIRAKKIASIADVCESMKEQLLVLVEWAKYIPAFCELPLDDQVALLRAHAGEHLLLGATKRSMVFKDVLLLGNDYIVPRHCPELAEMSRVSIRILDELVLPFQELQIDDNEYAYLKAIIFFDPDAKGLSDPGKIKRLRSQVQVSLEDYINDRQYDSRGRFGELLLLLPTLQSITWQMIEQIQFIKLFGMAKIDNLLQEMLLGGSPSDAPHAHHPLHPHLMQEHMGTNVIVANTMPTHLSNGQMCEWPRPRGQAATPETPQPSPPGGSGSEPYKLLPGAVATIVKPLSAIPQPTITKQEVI
# Assay: protein-binding microarray
# Settings: COS-7 nuclear extract on double-stranded Agilent 4x180k PBM; binding buffer, salt, pH and temperature not given; high values mean tight binding; double strand, one strand shown; sequences stand for … in …GCCTAGGGAGATTAGAGTATCGGTCGA
row,Sequence,binding signal (log2 normalized intensity)
1,TCGAAGGCCAAGGGATTTCAGTGCCCTCAT,1.7
2,ACACCAAGCAAGCTCTGCAATAGAGCCACA,-1.39
3,TCGAACAGTTGGCCACCTTTGGCCGAAACT,2.98
4,GTCCTCCTGTGGCCACAGAGCGCCTAACTA,-1.27
5,CCCTCTGAGTGTTTGACCTTTCACCCAGAA,7.2
6,GGCGGGTTCTGCCATCTCGCAGAAAGTGGC,-0.221
7,CTAGCATTAGGACCTGTTTGTCTTGCTGGG,1.33
8,TGACTTTATCATTGGACTCTCTCATTCTGA,2.51
9,ATAGACTGTCCCTCAGTGTGGGACTTTGGT,3.52
10,GCAGAAGGTGTTTCAGATGGACCAAAGGTC,6.13
11,AGAACACAGTCATTTATTCACTTATTTGTT,-0.755
12,GGAGTTGTCTGTCCAGTTCAGGAGTTATCA,0.137
13,CCTGGGTGCTCCCTCCCCCTGCATGAACCT,4.34
14,GTTAGGGCCATTTGGTCTGTAGTGTTGCTC,1.37
15,TTTGGGTAATAACATGTAATTGCATGACCA,1.79
16,AGCCTTTCCTCAGATGGAATGTGTGCCCGT,1.79
17,TTAGGATAGGGTCAGTCTTTGTTCTAGTAA,1.37
18,CGTCACCTTTATCGAACCTATTGTTTAATC,1.37
19,TGCATGTGTTCACACCACACTCTCCTCCTG,-1.17
20,CAGACAGCAGTCTGAGTAGGAAAGACTTGC,-0.262
21,CTTCAGCATCTTCAACTGTGTGAGCTGATC,1.06
22,TTAGGGAGGGGCCAGGACAAAGGTCCTGTG,2.51
23,TGCCTAAATCCAAAGGGCATCAGCCCCAAT,1.2
24,GCTCTGTTTTCTGACGCAACAGAAAACTCA,-1.48

row,Sequence,binding signal (log2 normalized intensity)
1,TAGAACAGGGCTTTAATTACCTGTTCTAAG,-1.34
2,AGACTTTTAAGTGGGGTCAAAGGGTACAAA,5.92
3,AAAGGTCAGTCCCGCAGTGAGGGACAAGGC,-0.103
4,CTAGCAAATACAAGGACACTGAAAGGCATT,-1.29
5,TCTGGTAAACAGCTGACAATAAATTCCAGG,-1.3
6,ATTTGACCCTTGGCCAGGTGCAGTGGCTCA,3.54
7,CTTATAAATCTTCAACTGGAGGATAAAGTT,1.09
8,AATGTCTGCTGTTGCACCTCTTATCAAGCG,-1.3
9,TCCTATTCGGTGCTGACCTTTGTTCACATT,6.64
10,GCTCACTTGGGGGTGGGGTGCTGCCTTTCC,0.199
11,CATCATCTCAGGGAGTGCAAACTTCTTTGA,0.928
12,ATAAAGAACGCTCACAGAAAGAAGAGACAG,-1.31
13,GTCTCTCTCTCATGCTATGCTCTCTCTCCA,-0.848
14,CAGCATGGTATGTGGCTTGCCGCATTCCCA,-1.17
15,CCTTTCCCTTCTTCTCCTCCCAACAGGTAT,2.53
16,TGCTCCTGCTTGCTGGCTTTCCCACCCATG,0.887
17,AGAACTGGTCCGCCTTCATTCCTAGCCCCA,2.59
18,TCTACTTGGTGGGAGGAGGGGGGAGGGTCG,-1.13
19,TTTCTCTGCACACACTCACAGAACACAGTG,-1.39
20,AACTTTCTTTTTGTTGTTAGAACAAAGTCC,4.6
21,GGCAGCCAGCTGGTTTGCCTCTCTTAGGTG,-1.29
22,AGCAGCTAGCAAATACAAGGACACTGAAAG,-1.33
23,ACACATGATAAGATTTATCTCTCCAAGGTA,-1.25
24,CAGAAGGCGCTGAACTTTGCCTTGTACACA,3.91

row,Sequence,binding signal (log2 normalized intensity)
1,AATCCTCAGCCTTCTCCGCGGCGGGCCCTC,-1.42
2,TATATTGGATAGTGCCTTTTCTAATATCTA,0.499
3,TAACGACCTTTGGGCTAAAAAGGAAGCTGT,2.73
4,TGGAGAAAGCAGCCAACCAGAGGCTGAAGT,-1.17
5,TAGGAGACTGTCTTAGGAAAGAACAGGTCA,0.841
6,GAGGAGTTAAAGCACAGTGTCTTTGTTTGG,1.49
7,GTCTGGCATACAGGGTCCAAAGGTGTCAAG,5.19
8,CCAGAATTCTCCCTGCAGTCCTCTGCTTAT,-1.22
9,CAAATTCCACACCCCCCACTCTTCATATCT,3.32
10,TCGTCCCGTCAATCTGCAGCCGCCGGAGAA,-1.13
11,CCAGGAAGCAAGACAATGCACTCATAACTA,-1.4
12,GGTAGCCACTGACAGGAGGTATGCCAGGAA,-1.37
13,CCTGGTATTAATGAGGCAAAGGTCAGGAGT,4.67
14,CTGGACTATGCCTTGAACTTTAAGGCACCT,1.67
15,TTTGACCGCTCATTTGATCCTCACAGTGCC,0.107
16,CCAACGGTCGGAAGGGAGGTGCCATGTCAC,-1.29
17,AGGGTAGGAGCCTCTGATTTGCTGATCCTA,-1.33
18,TTTTCAACAATGTTATCTTTTCAAGGATGT,1.42
19,CCTGCTGGCCTGGGAACTTAGCGATTTGGA,-1.08
20,AACTCTGAAGATTCACAGGTGGGATGCAAA,-1.06
21,GAAGATAAATCAGAAGAAAAAGGTAAGGAG,-1.37
22,CTCCGCCCCGTTCCCGGCAGCCCGCGCGTG,2.56
23,TCCACTCTCCTATCTTTCCCTCCACTTCCT,-0.225
24,GGCGTGGACTTCGCTCCGCCGCTAGGTGGC,3.13

row,Sequence,binding signal (log2 normalized intensity)
1,TGGACAAACAGGCTGAACATGACTGGCATT,-1.3
2,CGATAAGCTGACCCCAAAACCCCCAAAGGT,5.01
3,ACAAAGTTCCTGAGATAAAAAGAAGCTTGG,-1.25
4,AGCTCCATCTGAACTCTTCATGGACTCCTC,2.68
5,AATTCTTGTCCCTTTCAAGGGCTTACAACT,-0.163
6,TGAGCCCAGTGGAGTAGGCTTTAGATAAGG,-1.25
7,AAAAGAGCATAAGGTTTCCATCAAGCCTTT,-1.26
8,CTGGGTCTGTCCTTTGTGTTTATGGCAAAT,2.08
9,TTCATAATTACCATTCTTGAGGACAGGCCA,0.215
10,GACCTGCAAACAGCACTCTCTGATTACACA,-1.32
11,CTTCAGATGCCATGTCTAAAGGCTGTGTCG,1.09
12,GTCCCTGCCCTTTGTCCAGGGTGAGAGGGA,2.24
13,AGGTTGTACTATGACCCAAACTTCACAAAA,2.99
14,GGGGCAAAGTTTATGTGTGAGCCTATAATT,1.65
15,TGTTCCACCCAGGGTGGCAGGCTCTGCAAA,-1.29
16,GAAGCAAGTGTTTAACTCTTTATCTTTCTC,1.58
17,ACCATAAGAGGCTCTAGATCTCAAAGTCCA,4.86
18,TCTGTCCCTGCACCCTACCCCCATACTTTA,3.87
19,GAGACACCCCTGCAGAAGCGGGAGAGGCCC,-1.35
20,GCCACATTCCCCGACTCCTGGGTGTGAGAT,0.782
21,CTGTGCTTTCTAAAGTATGTGGTGGGTGTG,2.04
